# The whole screen tested about 410,000 compounds, of which about 6,400 (1.6%) were called active. The shares of active, inactive and inconclusive entries below differ from those in the screen. Calls follow the shape of the dose curve; as a rule, active = well fitted inhibition curve with a large enough effect; inconclusive = small, poorly fitted or top-dose-only effect; inactive = no such curve, though single readings can be large or run the other way. Potencies of inconclusive entries are left out as doubtful fits.
# Target: Glucagon-like peptide 1 receptor (Homo sapiens) (UniProt P43220)
# Sequence of UniProt P43220 (P43220 whole entry, looked up): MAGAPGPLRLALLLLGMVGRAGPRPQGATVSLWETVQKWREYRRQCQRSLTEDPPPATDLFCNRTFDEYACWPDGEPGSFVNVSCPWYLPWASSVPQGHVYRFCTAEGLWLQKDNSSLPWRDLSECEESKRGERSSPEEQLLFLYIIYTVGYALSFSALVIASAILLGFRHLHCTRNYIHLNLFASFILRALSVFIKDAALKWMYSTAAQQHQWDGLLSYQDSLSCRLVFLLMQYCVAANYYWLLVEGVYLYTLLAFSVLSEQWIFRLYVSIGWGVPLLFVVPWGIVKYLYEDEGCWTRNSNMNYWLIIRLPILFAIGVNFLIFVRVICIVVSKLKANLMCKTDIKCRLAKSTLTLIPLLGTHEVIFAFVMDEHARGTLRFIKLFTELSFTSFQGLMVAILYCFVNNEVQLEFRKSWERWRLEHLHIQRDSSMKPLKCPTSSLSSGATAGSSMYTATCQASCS
# Assay: qHTS of GLP-1 Receptor Inverse Agonists (Inhibition Mode); also: nearly all actives have a fitted effect of over 55% in size
# Details: HEK293 GLP-1R CRE-luciferase, luminescence, 24 h, GLP-1R form is constitutively active; activity change, negative = inhibition: at 38.3 µM (top of the series) unless noted
# Procedure, shortened: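 Constitutively active GLP-1R drives a cAMP-responsive luciferase in stably transfected HEK293 cells; test compounds are added after overnight (12 h) attachment and left 24 hr, and signal loss in luminescence marks inhibition.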
# % is scaled to controls: 0 for no effect and ±100 for the full control effect; potency is read from the fitted curve at half-maximal effect; tags tell the direction and shape of the fitted curve.
Structure (SMILES),Potency,"activity change, negative = inhibition"
COC(=O)C1=C(C)NC(C)=C(C(=O)OCCN(C)Cc2ccccc2)C1c1cccc([N+](=O)[O-])c1 (stereo not drawn),"inconclusive [inhibitor, partial curve, poor fit]",–
Cc1ccc(NC2=C(CC(=O)O)C(c3ccc(F)cc3)N(c3ccc(C)cc3)C2=O)cc1 (stereo not drawn),"inconclusive [inhibitor, single point]",–
CC(C)c1cccc(-c2csc(C(O)c3ccc(F)c(F)c3)n2)c1 (stereo not drawn),"inconclusive [inhibitor, single point]",–
O=C(c1cc2cc(Cl)ccc2o1)N1CCCC1,inactive,–
C/C(=N/NC(=O)CNC(=O)CCc1ccccc1)c1ccc(Cl)c(Cl)c1,"inconclusive [inhibitor, partial curve, poor fit]",–
COc1ccc(NS(=O)(=O)c2cc(NC(=O)c3ccc(F)cc3)ccc2OC)cc1,"inconclusive [inhibitor, single point]",–
O=C1c2ccccc2NC2CCCCCN12 (stereo not drawn),inactive,–
C=CCNC(=O)COC(=O)c1ccc(Cl)c(S(=O)(=O)N(Cc2ccccc2)c2ccccc2)c1,"inconclusive [inhibitor, partial curve, poor fit]",–
Cc1ccc(N(Cc2ccccc2)C(=O)c2ccc(F)c(S(=O)(=O)N3CCOCC3)c2)cc1,"inconclusive [inhibitor, partial curve]",–
O=C(/C=C/c1ccc(Cl)c([N+](=O)[O-])c1)Nc1cccc(NC(=O)c2ccco2)c1,"inconclusive [inhibitor, single point]",–
O=c1[nH]cccc1-c1nc2ccccc2n1Cc1cccc(F)c1,–,inconclusive: -47.5% [inhibitor]
Cc1cc(C)cc(OCC(=O)NC2CCCc3ccccc32)c1 (stereo not drawn),"inconclusive [inhibitor, partial curve, poor fit]",–
Cc1ccc(CNC(=O)CCN2C(=O)COc3ccc(C)cc32)cc1,inactive,–
COc1ccc(-c2nnc(-c3cc4c(ccc5ccccc54)oc3=O)o2)cc1,inactive,–
Cc1ccccc1C(=O)NC(=S)Nc1ccc(N2CCOCC2)cc1,"inconclusive [inhibitor, partial curve, poor fit]",–
Cc1ccc(S(=O)(=O)c2nc(Nc3ccccc3)sc2Cl)cc1,"inconclusive [inhibitor, partial curve, poor fit]",–
C=C1CCC2C(C)(C)[C@@H](O)CC[C@@]2(C)[C@@H]1COc1ccc2ccc(=O)oc2c1 (stereo partly drawn),"inconclusive [inhibitor, partial curve, poor fit]",–
CC(CN1CCCCC1)OC(=O)C(C)(c1ccccc1)c1ccccc1 (stereo not drawn),"inconclusive [inhibitor, single point]",–
COc1ccc(N2CCN(CC(=O)c3ccc(Cl)cc3)CC2)cc1,"inconclusive [inhibitor, single point]",–
CCC(C)Cn1c(/C=C/c2ccccc2)nc2ccccc21 (stereo not drawn),"inconclusive [inhibitor, full curve, poor fit]",–
O=C(NCCCCc1ccccc1)c1cccc(NC(=O)c2ccccc2)c1,active: 10 µM,–

Structure (SMILES),Potency,"activity change, negative = inhibition"
O=C(CS(=O)(=O)Cc1ccccc1)N1CCN(c2cccc(C(F)(F)F)c2)CC1,"inconclusive [inhibitor, single point]",–
CSc1ccc2c(c1)C(N1CCN(C)CC1)Cc1ccc(F)cc1S2 (stereo not drawn),"inconclusive [inhibitor, partial curve, poor fit]",–
Cc1ccc(N/N=C2\CCS(=O)(=O)c3sccc32)cc1,active: 3.98 µM,–
CCC(=O)C1=C(c2ccc(Cl)cc2)N(C(=O)CC)n2c(C)nnc2S1,inactive,–
O=C(CSc1oc(-c2ccco2)nc1S(=O)(=O)c1ccc(Br)cc1)c1ccccc1,"inconclusive [inhibitor, single point]",–
Cc1ccc(C)c(NC(=O)CN(C)C(=O)c2ccccc2Cc2ccccc2)c1,"inconclusive [inhibitor, partial curve, poor fit]",–
CN(C(=O)c1cccc(NC(=O)Cc2ccc(NC(=O)C3CCCN(C(=O)C4CC4)C3)cc2)c1)C1CCCCC1 (stereo not drawn),inactive,–
CCCCCCCCCCCC(=O)c1c(O)cccc1O,"inconclusive [inhibitor, single point]",–
CCOC(=O)c1ccc(CN(Cc2ccc(Cl)cc2Cl)S(=O)(=O)c2ccc(F)c(C)c2)cc1,inactive,–
Cc1ccc2c(c1)N(C(=O)CCC(=O)N1CCN(c3ccccc3)CC1)CCO2,"inconclusive [inhibitor, single point]",–
O=C1C(NS(=O)(=O)c2cccs2)=C(N2CCN(c3cccc(Cl)c3)CC2)C(=O)c2ccccc21,"inconclusive [inhibitor, single point]",–
O=C(CC(Nc1ccc(Cl)cc1Cl)C(=O)O)c1ccccc1 (stereo not drawn),"inconclusive [inhibitor, full curve]",–
Cc1ccc(C(=O)N/N=C\c2ccc(-c3ccc(Cl)cc3)o2)cn1,"inconclusive [inhibitor, partial curve, poor fit]",–
c1ccc(-c2nc(N3CCCCCC3)nc(-n3ccnc3)n2)cc1,"inconclusive [inhibitor, partial curve, poor fit]",–
CCc1ccc2nc(N(Cc3cccnc3)C(C)=O)sc2c1,inactive,–
COc1ccc(S(=O)(=O)N2CCCCCC2)cc1C(=O)N1CCN(c2ccccc2C)CC1,"inconclusive [inhibitor, single point]",–
COc1ccc(-c2cc3ccc(OC)cc3cn2)cc1,"inconclusive [inhibitor, full curve, poor fit]",–
O=c1cc2c(nn1Cc1ccc(Cl)cc1)-c1ccccc1CC2,"inconclusive [inhibitor, single point]",–
N/C(=N\OC(=O)c1ccccc1)C(C(=O)NOC(=O)c1ccccc1)C1CCCCC1 (stereo not drawn),"inconclusive [inhibitor, single point]",–
COc1ccc(OCCCC(=O)ON=C(N)c2ccccc2C)cc1,"inconclusive [inhibitor, single point]",–
O=C(CC(NC(=O)c1ccccc1)c1ccccc1)Nc1ccc(F)c(F)c1 (stereo not drawn),"inconclusive [inhibitor, single point]",–

Structure (SMILES),Potency,"activity change, negative = inhibition"
Cc1cc(C)c2c(-n3cccc3)c(C(=O)NNS(=O)(=O)c3ccc(Br)cc3)sc2n1,"inconclusive [inhibitor, single point]",–
O=C(CCCc1ccccc1)Nc1ccc2c(c1)OCCO2,"inconclusive [inhibitor, single point]",–
Cc1ccc(Cl)cc1N1CCN(C(=O)c2ccc(CN3CCOCC3)cc2)CC1,"inconclusive [inhibitor, single point]",–
Cc1ccc(/C=C2\SC(=S)N(C(Cc3ccccc3)C(=O)O)C2=O)cc1 (stereo not drawn),"inconclusive [inhibitor, partial curve, poor fit]",–
Cc1ccc(-c2nc(Nc3ccc(N4CCOCC4)cc3)c3ccccc3n2)cc1,"inconclusive [inhibitor, full curve]",–
Cc1ccc(S(=O)(=O)N2CCN(C(=O)CSc3ccc(Cl)cc3)CC2)cc1,"inconclusive [inhibitor, single point]",–
CCc1ccc2[nH]c(O)c(N=Nc3nc(-c4ccccc4)cs3)c2c1,inactive,–
O=C(NC(Nc1nc2ccc([N+](=O)[O-])cc2s1)(C(F)(F)F)C(F)(F)F)c1ccccc1Cl,inactive,–
CSc1ccccc1NC(=O)CN(C)C(=O)CNC(=O)c1ccc(Oc2ccccc2)cc1,"inconclusive [inhibitor, partial curve, poor fit]",–
COC(=O)[C@@]12CCCCN1[C@H](c1ccc(-c3ccc(Cl)c(Cl)c3)c(OC)c1)[C@@H]1C(=O)N(C)C(=O)[C@@H]12,inactive,–
CCOc1cccc(C(=O)Nc2cccc(C(=O)NCC(C)C)c2)c1,"inconclusive [inhibitor, single point]",–
C=CCOC(=O)C1=C(C)NC(SCC(=O)N(CC)CC)=C(C#N)C1c1ccco1 (stereo not drawn),"inconclusive [inhibitor, partial curve, poor fit]",–
Cc1nn(-c2ccccc2)c(-n2cccc2)c1C(=O)NCCc1ccc(Cl)cc1,"inconclusive [inhibitor, partial curve, poor fit]",–
Cn1c(/C(C#N)=C(\O)c2ccc([N+](=O)[O-])cc2)nc2ccccc21,inactive,–
CC(C)OC(=O)c1cc(Cl)c(=O)n(Cc2ccc(Cl)cc2Cl)c1,"inconclusive [inhibitor, partial curve, poor fit]",–
O=C(CCl)N(c1ccccc1)c1ccccc1,"inconclusive [inhibitor, partial curve, poor fit]",–
COc1cccc(CNc2nc3cc(-c4ccccc4C)sc3c(=O)n2C)c1OC,"inconclusive [inhibitor, single point]",–
Cc1[nH]c2ccccc2c1C(=O)COC(=O)c1c(-c2c(F)cccc2Cl)noc1C,"inconclusive [inhibitor, partial curve, poor fit]",–
CC(C)OCc1ccc(C(=O)N2CCN(CC(=O)N3CCCC3)CC2)cc1,inactive,–
Nc1ncnc2oc(-c3ccco3)c(-c3ccco3)c12,inactive,–
CCN(CC(=O)NCc1cccs1)C(=O)Cc1ccc(Cl)c(Cl)c1,"inconclusive [inhibitor, partial curve, poor fit]",–

# — PubChem BioAssay AID624417 (National Center for Advancing Translational Sciences (NCATS), 2012)
